The target in assay [1] is CD47 (UniProt Q08722). The assay can be described thus: FACS binding, CHO-K1 cells expressing CD47. On the technique in general: Flow cytometry measures light scatter and fluorescence of single cells or particles in a stream.
Assay [2] deals with human PD-1 (human, UniProt Q15116 25-288). The assay can be described thus: FACS binding, CHO-K1 cells expressing human PD-1.

Chain of human PD-1 (Q15116 25-288): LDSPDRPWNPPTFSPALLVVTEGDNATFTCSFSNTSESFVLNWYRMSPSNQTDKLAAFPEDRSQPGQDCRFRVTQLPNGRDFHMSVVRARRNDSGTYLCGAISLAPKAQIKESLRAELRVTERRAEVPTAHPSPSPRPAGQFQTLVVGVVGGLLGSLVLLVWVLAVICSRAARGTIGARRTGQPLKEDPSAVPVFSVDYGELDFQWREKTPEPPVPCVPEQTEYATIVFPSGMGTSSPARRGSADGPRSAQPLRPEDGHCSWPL
Chain of CD47 (Q08722 19-323): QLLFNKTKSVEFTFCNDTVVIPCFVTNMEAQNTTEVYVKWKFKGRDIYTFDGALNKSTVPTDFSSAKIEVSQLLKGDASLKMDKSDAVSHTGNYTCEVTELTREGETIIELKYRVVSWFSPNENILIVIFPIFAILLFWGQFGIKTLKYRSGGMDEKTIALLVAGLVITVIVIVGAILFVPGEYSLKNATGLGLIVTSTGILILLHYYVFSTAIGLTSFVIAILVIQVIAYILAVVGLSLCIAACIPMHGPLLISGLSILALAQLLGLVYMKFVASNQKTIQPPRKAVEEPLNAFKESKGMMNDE

B1: Fc fusion protein sdAb-PD1b-IgG4PE (Fc fusion)
chain: EVQLVESGGGLVQPGGSLRLSCAVSGNIYNRNFMGWFRQAPGKGLEGVSAIYTGTSRTYYADSVKGRFTISRDNSKNTVYLQMNSLRAEDTAVYYCAADLREGFWDTGVWNTWGQGTLVTVSS[human IgG4 Fc with changes not written out]
The EC50 is the concentration needed to bring the measured effect to its halfway point. Read a low EC50 as higher potency in that assay. For B1, the EC50 in assay [1] is roughly 63.8 nM; in assay [2] it was 4.73 nM.

B2: Fc fusion protein sdAb-PD1a-IgG4PE (Fc fusion)
chain: EVQLVESGGGLVQPGGSLRLSCAVSGNIYNRNFMGWFRQAPGKGREGVSAIYTGTSRTYYADSVKGRFTISRDNAKNTVYLQMNSLRPEDTAVYYCAADLRDGFWDTGVWNTWGQGTLVTVSS[human IgG4 Fc with changes not written out]
Molecule B2 returned an EC50 in assay [2] of 9.97 nM.

For the origin of these results see patent publication US20220332824A1 (published 2022).
